Measurements published in ChEMBL document CHEMBL1201862, “PubChem BioAssay data set” (2004).
Where a name gives a salt, the structure may show the parent alone.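 Where inhibition never reached the appropriate level, the endpoint shown equals the highest concentration tested. Otherwise, values were interpolated linearly from a five-concentration, 48-hour dose response in 96-well plates. Abbreviation: GI50, concentration required for 50% inhibition of growth.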 Active and inactive are the calls of the source. Rule as the data show it: active = GI50 up to about 1.1 µM and inactive = higher.

Tested on: NCI-H322M
Experiment: NCI anticancer screen, dose series, 48 h

Row | Structure (SMILES) | GI50
1 | Oc1nc(S)nc2c1CN(CCCN1CCOCC1)CN2 | inactive: > 100 µM
2 | COc1ccc2cc(CNCCOCCOCCNCc3ccc4cc(OC)ccc4c3)ccc2c1 | active: 0.697 µM
3 | CC(C)C1=CC23CCC4C(C)(C(=O)O)CCCC4(C)C2CC1C1C(=O)N(c2ccc(Cc4ccc(N5C(=O)C6C7CC8C9(C)CCCC(C)(C(=O)O)C9CCC8(C=C7C(C)C)C6C5=O)cc4)cc2)C(=O)C13 (stereo not drawn) | inactive: 11.5 µM
4 | COc1cc(C2SCC(=O)N2c2ccc(Cl)cc2)cc(I)c1O (stereo not drawn) | inactive: 45.1 µM
5 | NC(C(=O)O)C(N)C(=O)O (stereo not drawn) | inactive: > 100 µM
6 | Cc1cc(S(=O)(=O)Nc2nc(Nc3ccc4ccccc4c3)n[nH]2)c(S)cc1Cl | inactive: 74.6 µM
7 | NCCSC1(O)C(=O)c2ccccc2-c2ccccc21 (stereo not drawn) | inactive: 1.59 µM
8 | Clc1ccc(/C=C/c2nc(-c3ccccc3)cn3c2nc2ccccc23)cc1Cl | inactive: > 100 µM
9 | O=C1CCCC(O)=C1SC1=C(O)CCCC1=O | inactive: > 100 µM
10 | O=C1Nc2ccc(S(=O)(=O)N(CCO)CCO)cc2/C1=C1/Nc2ccccc2C1=O | inactive: > 100 µM
11 | COc1ccc(CNc2nc3ccccc3nc2-c2cccs2)cc1OC | inactive: 76.2 µM
12 | CCCC(=O)[O-].[Na+] [SODIUM BUTYRATE] | inactive: 3460 µM
13 | C=C1C(=O)O[C@@H]2[C@@H]3O[C@@H](C[C@@H]13)[C@](C)(O)CC/C=C(\C)CCC[C@@H]2C | inactive: 18.7 µM
14 | COc1ccc2c(-c3ccc(OCCN(C)C)cc3)c(Oc3ccccc3)c(=O)oc2c1 | inactive: 3.85 µM
15 | O=C(OCN1C(=O)C2C3C=CC(C2C1=O)C1C2C(=O)N(COC(=O)C4CCCN4)C(=O)C2C31)C1CCCN1 (stereo not drawn) | inactive: > 100 µM
16 | CC1OC(OC2C[C@](O)(C(=O)CF)Cc3c(O)c4c(c(O)c32)C(=O)c2ccccc2C4=O)CC(N)C1O (stereo partly drawn) | active: 0.255 µM
17 | CC(C)(C)CNCCCNc1ccc(Cl)cc1 | inactive: 36.2 µM
18 | Cc1nn(-c2ccccc2)c2nc3ccc(Cl)cc3c(-c3ccccc3)c12 | inactive: > 100 µM
19 | c1ccc(C(c2ccccc2)[P+](c2ccccc2)(c2ccccc2)c2ccccc2)cc1 | inactive: 1.75 µM
20 | O=C1C(Cl)C(c2cc(Br)cc(Br)c2O)N1n1cnc2ccccc2c1=O (stereo not drawn) | inactive: 15.2 µM
21 | O=c1[nH]c2nc3ccccc3c(=O)n2/c1=C/c1ccco1 | inactive: > 100 µM

Row | Structure (SMILES) | GI50
22 | C=C1CN2CCc3c([nH]c4ccccc34)C2CC1CC(=O)N(C)C (stereo not drawn) | inactive: > 309 µM
23 | CC(=O)Oc1cc(-c2oc3cc(OC(C)=O)c(C4OC(CO)C(O)C(O)C4O)c(OC(C)=O)c3c(=O)c2O)c(OC(C)=O)cc1O (stereo not drawn) | inactive: 83.4 µM
24 | CC(=O)NC1C(OCc2ccccc2)OC(COC(=O)CCCCCCCCCCNc2ccc([N+](=O)[O-])c3[nH]c4ccccc4c(=O)c23)C(O)C1OC(C)C(=O)NC(C)C(=O)NC(CCC(N)=O)C(=O)OCc1ccccc1 (stereo not drawn) | inactive: > 100 µM
25 | Cc1ccc(-n2c3nc(=O)n(C)c(=O)c-3nc3ccccc32)cc1 | inactive: 16.3 µM
26 | Cc1ccc(S(=O)(=O)N(/N=C(\N)Oc2ccc(Cl)cc2)C(=N)Oc2ccc(Cl)cc2)cc1 | inactive: > 100 µM
27 | Sc1nc(S)nc(Oc2ccc(Cl)c(Cl)c2)n1 | inactive: 25.6 µM
28 | Cc1cn(C2CC(N=[N+]=[N-])C(CO[Si](C)(C)C(C)(C)C)O2)c(=O)[nH]c1=O (stereo not drawn) | inactive: 17.3 µM
29 | O=C(CCSC(CC(=O)c1ccc(Cl)cc1)c1ccc(Cl)cc1)Nc1ccc(Cl)cc1 (stereo not drawn) | inactive: 10.4 µM
30 | C/C(CC(=O)Nc1cccc([N+](=O)[O-])c1)=N/NC(N)=S | inactive: > 100 µM
31 | Cc1n[nH]c(=O)n1N1C(=O)c2ccccc2C1=O | inactive: > 100 µM
32 | NCC1(N2CCOCC2)C2CCCC21CNc1ccccc1 (stereo not drawn) | inactive: > 100 µM
33 | COC(NC(N)=O)C(=O)O (stereo not drawn) | inactive: > 100 µM
34 | O=C(c1cccc(C(=O)c2ccc3c4c(cccc24)C(=O)N(c2ccccc2)C3=O)c1)c1ccc2c3c(cccc13)C(=O)N(c1ccccc1)C2=O | inactive: > 100 µM
35 | N/N=C(\C(=O)Nc1ccc([N+](=O)[O-])cc1)C(C1=Nc2cc([N+](=O)[O-])ccc2NC1)[N+](=O)[O-] (stereo not drawn) | inactive: > 100 µM
36 | COc1c(-c2nc3ccc(N4CCN(C)CC4)cc3[nH]2)cc(OC)c2[nH]c(COC(C)=O)nc12 | inactive: 39.3 µM
37 | CC1(C)OCC2(CO1)CSCCCSCC1(COC(C)(C)OC1)CSCCCSC2 | inactive: > 100 µM
38 | O=c1oc2cc(/N=C/c3ccccc3Cl)ccc2c2ccccc12 | inactive: > 100 µM
39 | Cn1c2nc3ccccc3c-2cc2ccccc21 [NEOCRYPTOLEPINE HYDROCHLORIDE] | inactive: 2.6 µM
40 | O=C(O)CCSC(=O)Nc1cccc2ccccc12 | inactive: > 100 µM
41 | CC(C)OP(=O)(OC(C)C)/C(N)=N/Nc1ccc([N+](=O)[O-])cc1 | inactive: 80.7 µM
42 | Oc1ccc(Cl)cc1-c1cc(-c2ccccc2)nc(S)n1 | inactive: > 100 µM

Row | Structure (SMILES) | GI50
43 | C=C1CC2(OC1=O)c1ccccc1CCc1ccccc12 | inactive: 16.6 µM
44 | COc1cc(-c2cc(-c3cc([N+](=O)[O-])c(/C=N/NC(=O)c4ccncc4)o3)ccc2OC)ccc1C | inactive: > 100 µM
45 | CN(CC(=O)O)Cc1c(O)c(Cl)cc(Cl)c1Cl | inactive: 10.3 µM
46 | O=C(Nc1ccc([N+](=O)[O-])cc1[N+](=O)[O-])C(=O)C(C(=O)c1ccc2ccccc2c1)C1OC(=O)c2ccccc21 (stereo not drawn) | inactive: 13.2 µM
47 | O=C1c2ccccc2C(O)(C(=O)O)C1(O)CC=C(Cl)Cl (stereo not drawn) | inactive: > 125 µM
48 | CCCCOC(=O)NC(=O)c1cn(CCCOC(=O)NCCCCCCNC(=O)OCCCn2cc(C(=O)NC(=O)OCCCC)c(=O)[nH]c2=O)c(=O)[nH]c1=O | inactive: > 100 µM
49 | COc1ccc(/N=N/C(=N\c2ccc(F)cc2)c2ccc(N(CCC#N)CCC#N)cc2)cc1 | inactive: 52.8 µM
50 | CCOC(=O)/C=C1\Nc2ccccc2C12CCc1c([nH]c3ccccc13)C2C(=O)OCC (stereo not drawn) | inactive: 20.7 µM
51 | COc1cc(O)c(C(=O)/C=C/c2ccc(OC)c(OCc3ccccc3)c2)c(OC)c1 | inactive: 4.43 µM
52 | OC1CC2CCC(C1)N2CCCN1c2ccccc2Sc2ccc(Cl)cc21 (stereo not drawn) | inactive: 2.78 µM
53 | c1ccc(-c2cc(-c3cccs3)c(-c3cccs3)s2)cc1 | inactive: > 100 µM
54 | COc1ccc(C2=NC(C)(C)CO2)cc1 | inactive: > 100 µM
55 | CCCCCCCCCCCCCCCCCCNc1nc(=O)n(C2CC(OP(=O)(O)OCC3OC(n4cc(F)c(=O)[nH]c4=O)CC3O)C(CO)O2)cc1F (stereo not drawn) | inactive: 53.8 µM
56 | Cc1cc2nc3n(c2cc1C)C(c1c(F)cccc1F)SC3 (stereo not drawn) | inactive: 26.1 µM
57 | Cn1ncc2ccc3[nH]c4ccccc4c(=O)c3c21 | inactive: 31.7 µM
58 | CC(CC(=O)N1C(=O)C(C)(C)[C@@H](O)[C@H]1CC(C)C(Cl)(Cl)Cl)C(Cl)(Cl)Cl (stereo partly drawn) | inactive: > 100 µM
59 | CC(C)(CO)CNc1cc(=O)[nH]c(N)n1 | inactive: > 100 µM
60 | FC(F)(Sc1nc2ccccc2[nH]1)c1nc2ccccc2o1 | inactive: > 100 µM
61 | C=C=C(Sc1ccccc1)C(C)(C)OC(C)=O | inactive: 20.4 µM
62 | Clc1ccc2nc3[nH]nc(Cl)c3nc2c1 | inactive: 39.4 µM
63 | C=CC(C)(C)c1c(OC)oc2ccc(OC)c(C)c2c1=O | inactive: > 100 µM
